Assay [1] has as its system HSkMC (human skeletal muscle cells). The assay can be described thus: cytotoxicity call (relative viability < 0.9). The following applies: 10 µM.
Assay [2] relates to HepG2. The assay can be described thus: cytotoxicity call (relative viability < 0.9). The settings on record: 10 µM.
Assay [3] concerns S. aureus RN4220. The assay can be described thus: growth inhibition call (relative growth <= 0.2). The following applies: 50 µM.

Some of the results follow.

On to `COCOc1ccc2cc(Br)ccc2c1-c1c(OCOC)ccc2cc(Br)ccc12`, for which the cytotoxicity call in assay [1] and in assay [2] was “active” in each case. Further, in assay [3], the growth inhibition call is “inactive”.

For `CC[N+](CC)(CC)CCOc1ccc(C=Cc2ccccc2)cc1`, the cytotoxicity call in assay [1] and in assay [2] was “inactive” throughout. In assay [3], the growth inhibition call was “inactive”.

For `O=C(O)[C@H](O)Cc1ccccc1`, the cytotoxicity call in assay [1] and in assay [2] was “inactive” throughout. The growth inhibition call in assay [3] was “inactive”.

Turning to `COc1ccccc1NC(=O)N(C)C[C@H]1OCc2ccccc2-c2c(n(C)c3ccccc23)C(=O)N([C@H](C)CO)C[C@@H]1C`, the cytotoxicity call in assay [1] and in assay [2] was “inactive” each time. In addition, the growth inhibition call in assay [3] is “inactive”.

For `CCOc1cc2ncc(C#N)c(Nc3ccc(OCc4ccccn4)c(Cl)c3)c2cc1NC(=O)/C=C/[C@H]1CCCN1C`, in assay [1], the cytotoxicity call is “inactive”. For the same molecule, the cytotoxicity call in assay [2] was “active”. Besides, the growth inhibition call in assay [3] was “inactive”.

With `C[C@H]1CN([C@@H](C)CO)C(=O)c2cccc(NC(=O)c3ccc(-c4nccs4)cc3)c2O[C@@H]1CN(C)S(C)(=O)=O`, the cytotoxicity call in assay [1] and in assay [2] was “inactive” throughout. Besides, the growth inhibition call in assay [3] is “inactive”.

Turning to `C[C@@H]1CCCCO[C@@H](CN(C)C(=O)NC2CCCCC2)[C@H](C)CN([C@H](C)CO)C(=O)c2cc(NC(=O)C3CCCCC3)ccc2O1`, the cytotoxicity call in assay [1] and in assay [2] was “inactive” throughout. In assay [3], the growth inhibition call is “inactive”.

Regarding `COc1ccc(S(=O)(=O)Nc2ccc3c(c2)C(=O)N([C@H](C)CO)C[C@H](C)[C@@H](CN(C)S(=O)(=O)c2ccccc2)O3)cc1`, the cytotoxicity call in assay [1] and in assay [2] was “inactive” throughout. The growth inhibition call in assay [3] is “inactive”.

In the case of `C[C@@H]1CN([C@@H](C)CO)C(=O)c2cc(NC(=O)Cc3ccccc3)ccc2O[C@@H](C)CCCCO[C@H]1CN(C)C(=O)Cc1ccccc1`, the cytotoxicity call in assay [1] and in assay [2] was “inactive” in each case. Further, the growth inhibition call in assay [3] was “inactive”.

As for `C[C@@H]1CN([C@@H](C)CO)C(=O)c2cc(NS(=O)(=O)c3cn(C)cn3)ccc2O[C@@H]1CN(C)C(=O)Nc1ccc(F)cc1`, the cytotoxicity call in assay [1] and in assay [2] was “inactive” in each case. Also, the growth inhibition call in assay [3] was “inactive”.

Take `C[C@H]1CCCCO[C@H](CN(C)S(=O)(=O)c2ccc(Cl)cc2)[C@@H](C)CN([C@@H](C)CO)C(=O)c2cc(NS(=O)(=O)c3ccc(F)cc3)ccc2O1`: the cytotoxicity call in assay [1] was “inactive”. Moreover, in assay [2], the cytotoxicity call is “active”. For the same molecule, the growth inhibition call in assay [3] was “inactive”.

For the molecule `COC(=O)[C@@H](Cc1ccc(-n2cc(-c3ccc(C(=O)NO)s3)nn2)cc1)N1CC2=C[C@H](C3CC3)n3c(=O)n(C)c(=O)n3[C@@H]2[C@H]1[C@H](O)Cc1ccccc1`, the cytotoxicity call in assay [1] and in assay [2] was “inactive” in each case. Further, the growth inhibition call in assay [3] was “inactive”.

With `CCN1CCCC(OC(=O)C(c2ccccc2)c2ccccc2)C1.Cl` (centres undefined), the cytotoxicity call in assay [1] and in assay [2] was “inactive” in each case. Further, in assay [3], the growth inhibition call was “inactive”.

On to `C[C@H](CO)N1C[C@H](C)[C@@H](CN(C)C(=O)Nc2cccc3ccccc23)OCCCC[C@H](C)Oc2ccc(NS(=O)(=O)c3ccc(F)cc3)cc2C1=O`, for which the cytotoxicity call in assay [1] and in assay [2] was “inactive” throughout. Moreover, in assay [3], the growth inhibition call is “inactive”.

As to `C[C@@H]1CN([C@@H](C)CO)C(=O)c2c(c3ccccc3n2C)-c2ccccc2CO[C@@H]1CN(C)S(=O)(=O)c1ccc(Cl)cc1`, the cytotoxicity call in assay [1] and in assay [2] was “inactive” each time. In addition, the growth inhibition call in assay [3] is “inactive”.

Consider `CO[C@H]1CN(C)C(=O)c2ccc(NC(=O)c3ccc(F)cc3)cc2OC[C@@H](C)N(C(=O)CN(C)C)C[C@@H]1C`, for which the cytotoxicity call in assay [1] and in assay [2] was “inactive” each time. Besides, the growth inhibition call in assay [3] is “inactive”.

As for `CSc1n[nH]c2nc(=O)cc(N)n12`, the cytotoxicity call in assay [1] and in assay [2] was “inactive” in each case. Also, the growth inhibition call in assay [3] is “inactive”.

In the case of `Cc1cc(NC(=O)C(=O)NC[C@H]2CCCO2)n(-c2nc(=O)cc(C)[nH]2)n1`, the cytotoxicity call in assay [1] and in assay [2] was “inactive” throughout. Also, the growth inhibition call in assay [3] is “inactive”.

As to `COc1ccc(S(=O)(=O)Nc2ccc3c(c2)CC(=O)N([C@@H](C)CO)C[C@@H](C)[C@@H](CN(C)C(=O)Nc2c(C)noc2C)O3)cc1`, the cytotoxicity call in assay [1] and in assay [2] was “inactive” each time. For the same molecule, in assay [3], the growth inhibition call is “inactive”.

On to `O=C(C[C@@H]1CC[C@H]2[C@@H](COC[C@@H](O)CN2C(=O)c2ccc3c(c2)OCO3)O1)NCCN1CCCC1`, for which the cytotoxicity call in assay [1] and in assay [2] was “inactive” throughout. Moreover, in assay [3], the growth inhibition call is “inactive”.

In the case of `O=C(C[C@H]1C=C[C@H](NC(=O)c2ccncc2)[C@H](CO)O1)NCc1ccncn1`, the cytotoxicity call in assay [1] and in assay [2] was “inactive” each time. The growth inhibition call in assay [3] was “inactive”.

As to `COc1ccc(S(=O)(=O)Nc2ccc3c(c2)C(=O)N([C@@H](C)CO)C[C@H](C)[C@H](CN(C)C(=O)NC2CCCCC2)OCCCC[C@@H](C)O3)cc1`, the cytotoxicity call in assay [1] and in assay [2] was “inactive” in each case. For the same molecule, the growth inhibition call in assay [3] is “inactive”.

Turning to `COCCOC(=O)N1C(=O)[C@@]2(c3cc(C#CCCO)ccc31)[C@H](C(=O)NC[C@H](O)c1ccccc1)[C@H]1C(=O)O[C@H](c3ccccc3)[C@H](c3ccccc3)N1[C@@H]2c1ccc(O)cc1`, the cytotoxicity call in assay [1] and in assay [2] was “inactive” throughout. The growth inhibition call in assay [3] was “inactive”.

In the case of `O=C([O-])c1ccccc1-c1c2cc(I)c(=O)c(I)c-2oc2c(I)c([O-])c(I)cc12.[Na+].[Na+]`, the cytotoxicity call in assay [1] and in assay [2] was “inactive” in each case. In addition, the growth inhibition call in assay [3] is “active”.

On to `O=C(NCc1cccc(F)c1)[C@H]1[C@H](CO)[C@H]2Cn3c(cccc3=O)[C@@H]1N2C(=O)c1cnccn1`, for which the cytotoxicity call in assay [1] and in assay [2] was “inactive” in each case. In addition, in assay [3], the growth inhibition call was “inactive”.

With `C[C@@H]1CCCCO[C@H](CN(C)Cc2ccncc2)[C@@H](C)CN([C@@H](C)CO)C(=O)c2cc(NC(=O)CCC(F)(F)F)ccc2O1`, the cytotoxicity call in assay [1] and in assay [2] was “inactive” in each case. Moreover, the growth inhibition call in assay [3] was “inactive”.

Turning to `C[C@@H]1CN([C@H](C)CO)C(=O)Cc2cc(NS(C)(=O)=O)ccc2O[C@@H]1CN(C)C(=O)NC1CCCCC1`, the cytotoxicity call in assay [1] and in assay [2] was “inactive” each time. Besides, the growth inhibition call in assay [3] was “inactive”.

For the molecule `CN(C)CC(=O)N[C@H]1CC[C@H](CCNC(=O)C2CCC2)O[C@H]1CO`, the cytotoxicity call in assay [1] and in assay [2] was “inactive” in each case. In assay [3], the growth inhibition call was “inactive”.

For `C=C(CC)ON=c1[nH]c(=O)c2ncn([C@@H]3O[C@H]4CO[PH](O)(O)O[C@H]4[C@H]3OC(=O)CCC)c2[nH]1`, the cytotoxicity call in assay [1] and in assay [2] was “inactive” each time. The growth inhibition call in assay [3] is “inactive”.

With `NC(=O)c1cccc(C(N)=O)c1`, the cytotoxicity call in assay [1] and in assay [2] was “inactive” throughout. Also, the growth inhibition call in assay [3] is “inactive”.

In the case of `C[C@@H]1CCCCO[C@@H](CN(C)C(=O)Nc2ccc3c(c2)OCO3)[C@H](C)CN([C@@H](C)CO)C(=O)c2cc(NC(=O)Nc3ccccc3)ccc2O1`, the cytotoxicity call in assay [1] and in assay [2] was “inactive” each time. In assay [3], the growth inhibition call is “inactive”.

Turning to `COc1ccc(CN(C)C[C@@H]2OCCCC[C@@H](C)Oc3ccc(NC(=O)CCC(F)(F)F)cc3C(=O)N([C@@H](C)CO)C[C@@H]2C)cc1`, the cytotoxicity call in assay [1] and in assay [2] was “inactive” in each case. For the same molecule, the growth inhibition call in assay [3] is “inactive”.

Consider `O=C(O)C1CC(C2CCCCN2)CN2CCCCC12` (centres undefined), for which the cytotoxicity call in assay [1] and in assay [2] was “inactive” each time. Further, the growth inhibition call in assay [3] was “inactive”.

Regarding `CO[C@H]1CN(C)C(=O)c2cc(NS(=O)(=O)CC(F)(F)F)ccc2OC[C@@H](C)N(C(=O)NC(C)C)C[C@H]1C`, the cytotoxicity call in assay [1] and in assay [2] was “inactive” each time. The growth inhibition call in assay [3] is “inactive”.

As to `COc1ccc(NC(=O)N(C)C[C@@H]2OCCCC[C@H](C)Oc3ccc(NC(=O)c4ccccc4)cc3C(=O)N([C@H](C)CO)C[C@@H]2C)cc1`, the cytotoxicity call in assay [1] and in assay [2] was “inactive” in each case. Further, the growth inhibition call in assay [3] was “inactive”.

For the molecule `COc1ccc(S(=O)(=O)N(C)C[C@H]2Oc3c(NC(=O)C4CCOCC4)cccc3C(=O)N([C@H](C)CO)C[C@@H]2C)cc1`, the cytotoxicity call in assay [1] and in assay [2] was “inactive” each time. In addition, in assay [3], the growth inhibition call was “inactive”.

For `C[C@H]1CN([C@@H](C)CO)S(=O)(=O)c2ccc(-c3cncnc3)cc2O[C@H]1CN(C)C(=O)NC1CCCC1`, the cytotoxicity call in assay [1] and in assay [2] was “inactive” throughout. Also, the growth inhibition call in assay [3] was “inactive”.

In the case of `OCCN1C[C@@H](O)[C@@H](O)[C@@H](O)[C@@H]1CO`, the cytotoxicity call in assay [1] and in assay [2] was “inactive” in each case. The growth inhibition call in assay [3] is “inactive”.

Values taken from the antibiotic and cytotoxicity screens of Wong et al. (2023).
